Measurements taken from PMC4336329 (PLoS ONE, 2015).
Hit rate of the full screen: of about 310,000 compounds, about 2,200 (0.71%) showed an effect of 50% or more. Effects have a minus sign here. Some of the results follow.

Biological target: human ether-à-go-go-related gene (hERG) potassium channel (human, UniProt Q12809)
Experiment: primary screen, population patch clamp on CHO cells stably expressing hERG

human ether-à-go-go-related gene (hERG) potassium channel, sequence (Q12809 whole entry, looked up): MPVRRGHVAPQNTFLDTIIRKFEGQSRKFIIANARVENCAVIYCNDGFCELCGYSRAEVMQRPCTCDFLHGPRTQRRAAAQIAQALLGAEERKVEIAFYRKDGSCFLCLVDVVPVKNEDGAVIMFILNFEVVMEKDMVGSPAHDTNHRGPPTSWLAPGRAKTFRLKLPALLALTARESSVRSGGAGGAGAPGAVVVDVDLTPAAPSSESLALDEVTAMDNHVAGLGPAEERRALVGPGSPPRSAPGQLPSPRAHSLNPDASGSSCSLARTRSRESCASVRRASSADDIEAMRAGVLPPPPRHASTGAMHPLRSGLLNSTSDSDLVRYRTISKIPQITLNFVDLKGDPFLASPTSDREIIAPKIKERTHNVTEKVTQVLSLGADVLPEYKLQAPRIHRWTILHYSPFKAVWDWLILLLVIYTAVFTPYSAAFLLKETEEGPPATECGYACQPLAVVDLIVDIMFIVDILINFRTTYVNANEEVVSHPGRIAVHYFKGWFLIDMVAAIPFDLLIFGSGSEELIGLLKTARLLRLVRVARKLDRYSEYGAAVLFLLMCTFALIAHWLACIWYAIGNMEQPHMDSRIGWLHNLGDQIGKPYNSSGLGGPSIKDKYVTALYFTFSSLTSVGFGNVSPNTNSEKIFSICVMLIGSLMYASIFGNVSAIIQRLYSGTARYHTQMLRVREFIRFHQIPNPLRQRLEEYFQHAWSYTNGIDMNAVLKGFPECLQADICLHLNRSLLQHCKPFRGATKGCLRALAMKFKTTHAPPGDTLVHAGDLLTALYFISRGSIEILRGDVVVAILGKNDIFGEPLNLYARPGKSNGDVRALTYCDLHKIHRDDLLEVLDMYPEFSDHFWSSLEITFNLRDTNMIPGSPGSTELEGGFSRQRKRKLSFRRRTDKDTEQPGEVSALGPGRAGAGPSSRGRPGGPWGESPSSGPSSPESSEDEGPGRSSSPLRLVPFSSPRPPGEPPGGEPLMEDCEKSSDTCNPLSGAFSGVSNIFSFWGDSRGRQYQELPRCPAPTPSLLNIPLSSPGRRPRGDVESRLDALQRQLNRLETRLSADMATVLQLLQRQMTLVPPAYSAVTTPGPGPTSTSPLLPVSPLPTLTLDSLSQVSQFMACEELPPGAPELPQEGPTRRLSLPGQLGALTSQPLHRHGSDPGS

Row | SMILES | hERG current change (%, negative = inhibition) at 1uM
1 | CCOc1ccc(NS(=O)(=O)c2ccc(C(=O)NCC(c3ccco3)N3CCCC3)cc2)cc1 (centres unmarked) | 1.37%
2 | Cc1ccccc1C(=O)NCCSc1ccccc1 | 1.69%
3 | CC(=O)/C(=N\Nc1ccccc1)Oc1ccc([N+](=O)[O-])cc1 | -16.2%
4 | Cc1c(C(=O)N2CCOCC2)[nH]c2ccc(OCc3ccccc3)cc12 | -1.19%
5 | CCN(CC)CP(=O)(c1ccccc1)c1ccccc1 | 3.14%
6 | CCN(Cc1cc2cc(C)ccc2[nH]c1=O)C(=O)c1cccc(OC)c1 | 4.16%
7 | CN(C)Cc1c(C(=O)Nc2ccccc2)[nH]c2ccccc12 | 0.151%
8 | S=c1[nH]nc(C23CC4CC(CC(C4)C2)C3)n1Cc1ccco1 | 11.5%
9 | COC(=O)c1c(SCc2cccc3ccccc23)nc(=O)[nH]c1C | 11.7%
10 | COc1ccc(CCn2c(C)cc(C(=O)CSc3nnnn3C)c2C)cc1 | 8.71%
11 | Cc1nc2nc(-c3ccc(Cl)cc3)nn2c(C)c1Cl | 13.4%
12 | O=C(O)c1cccc(Cn2cccn2)c1 | 10.9%
13 | COCCNC(=O)Nc1ccc2nc(C)sc2c1 | 1.91%
14 | O=C(NCC1CCCO1)c1ccc(COc2ccccc2Br)cc1 (centres unmarked) | 5.87%
15 | O=C1c2ccccc2C(=O)N1CC1c2ccccc2CCN1C(=O)CN1CCOCC1 (centres unmarked) | 2.79%
16 | Cc1ccc(-n2ccnc(SCC(=O)NC3CCCCC3)c2=O)cc1F | 14.5%
17 | CC(=O)Nc1ccc(S(=O)(=O)NNC(=O)NC23CC4CC(CC(C4)C2)C3)cc1 | 10.3%
18 | O=C(NC1CCCCC1)N(Cc1nc2ccccc2c(=O)[nH]1)C1CCCCC1 | 12%
19 | CCOc1cccc(C(=O)Nc2ccccc2OC(F)F)c1 | -5.79%

Row | SMILES | hERG current change (%, negative = inhibition) at 1uM
20 | CC(C)C[C@H](NC(=O)[C@H]1N2C(=O)c3ccccc3C2SC1(C)C)C(=O)N[C@@H](Cc1ccccc1)C(=O)O (some centres unmarked) | 9.27%
21 | CC(=O)NCCc1ccc(S(=O)(=O)Nc2cccnc2)cc1 | 15%
22 | COC(=O)c1cnc(N2CCOCC2)nc1C(F)(F)F | 7.52%
23 | O=C(Nc1cccc(F)c1)C1CCN(C(=O)c2ccc(Br)cc2)CC1 | -22.2%
24 | CC(C)(C)c1ccc(C(=O)CC(Sc2ccc(Cl)cc2)C(=O)O)cc1 (centres unmarked) | 11.1%
25 | O=C(CCCN1C(=O)/C(=C/c2ccccc2Cl)SC1=S)NNC(=O)c1ccc(Cl)cc1Cl | 13%
26 | Cc1sc2nc(COC(=O)c3ccc(O)cc3)[nH]c(=O)c2c1C | 18.4%
27 | Cc1ccccc1C(=O)NNC(=O)CCc1ccccc1 | 16.5%
28 | CCOC(=O)c1sc(NC(=O)C(CC)OC(=O)C(CC(C)C)NC(=O)c2ccccc2)nc1C (centres unmarked) | 7.91%
29 | O=C(Cn1c(=S)[nH]c2ccccc2c1=O)N1CCC2(CC1)OCCO2 | 12.5%
30 | Cc1cccc(NC(=O)CSc2nccn2Cc2ccco2)c1 | 11.3%
31 | CC(=O)c1c(C)[nH]c(C(=O)CN2CCN(S(=O)(=O)c3ccccc3[N+](=O)[O-])CC2)c1C | 5.11%
32 | COc1ccc(CN(CC(=O)NCc2ccc3c(c2)OCO3)C(=O)c2csnn2)cc1 | -12.2%
33 | COc1ccc(CN2CCN(C(C)C(=O)NC(C)c3ccc(F)cc3)CC2)cc1F (centres unmarked) | -17.3%
34 | Cc1nn(C(C)C(=O)NCc2ccccc2Cl)c(=O)c2c1sc1ccccc12 (centres unmarked) | 4.93%
35 | O=C(CNC1CCCC1)Nc1cc(Cl)ccc1[N+](=O)[O-].O=C(O)C(=O)O | 13.6%
36 | COC(=O)c1cccc(C(=O)N2CCC(CO)(CCc3ccccc3)CC2)c1 | 3.49%
37 | Cc1ccc(OCC(=O)Nc2ccc(Cl)cc2C(=O)c2ccccc2)cc1 | 9.29%
38 | COc1ccccc1N1CCN(S(=O)(=O)c2ccc(F)cc2)CC1 | 4.4%

Row | SMILES | hERG current change (%, negative = inhibition) at 1uM
39 | O=C(O)CCc1ccc(-c2ccccc2)n1CC1CCCO1 (centres unmarked) | 8.1%
40 | Cc1ccc2oc(C(=O)N3CCCCCC3)c(C)c2c1 | 13.2%
41 | Fc1ccc(Nc2nc(Oc3ccc4c(c3)OCO4)nc(N3CCOCC3)n2)c(F)c1 | 14.6%
42 | CCNc1nc2c(c(=O)[nH]c(=O)n2C)n1Cc1ccc(F)cc1 | 14.6%
43 | CCCNC(=O)/C(C#N)=C1\N=C(NC(=O)c2ccco2)c2ccccc21 | 11.6%
44 | CC(=O)C1=C(C)Nc2ncnn2C1c1cccc(OCc2ccccc2)c1 (centres unmarked) | 8.1%
45 | CCCCCn1c(N)c(C(=O)NCCN2CCOCC2)c2nc3ccccc3nc21 | -0.506%
46 | O=C(NCc1ccccc1)c1ccc2c(c1)C(=O)N(CC1CCCO1)C2=O (centres unmarked) | -8.09%
47 | Cc1cc(C)c2oc(=O)cc(CN3CCCCC3)c2c1 | 13.9%
48 | CN(C)c1ccc(/C=N/N(CCC(=O)NC(C)(C)C)C2=NS(=O)(=O)c3ccccc32)cc1 | 14.9%
49 | COC(CN(C(=O)CCl)C(C(=O)NC1CCCCC1)c1ccc(C)cc1)OC (centres unmarked) | 0.13%
50 | COCCN(C(=O)COC(=O)C1(C)CC1(Cl)Cl)c1c(N)n(Cc2ccccc2)c(=O)[nH]c1=O (centres unmarked) | 13.6%
51 | COc1ccc(NC(=O)CSc2nnc3n2CCCCC3)cc1S(=O)(=O)N1CCOCC1 | -2.19%
52 | O=C(COC(=O)c1ccc(Br)cc1)NCCc1ccccc1 | 13.3%
53 | COc1ccccc1C(=O)COC(=O)Cc1c[nH]c2ccccc12 | -14.8%
54 | COc1cc(/C=C/C(=O)OC(C)C(=O)NC2CCCCC2C)cc(Cl)c1OC (centres unmarked) | 11.4%
55 | CC(=O)N1[C@H](Cc2ccccc2)C=C[C@]1(C)C(=O)NCc1ccc(C)o1 | 13.5%
56 | CC(C)OCC(O)CN1CCC(Cc2ccccc2)CC1.Cl (centres unmarked) | -2.15%
